This note sets out measurements from the supplement of paper PMC10441789.

Some of the results follow. Antibody binding of pooled human sera (four to six donors per pool; dilution not stated) to peptides of the Trypanosoma cruzi antigen TSSA on microarrays. Quantile-normalised fluorescence in arbitrary units, mean of duplicate arrays; higher = more binding. No active / inactive call. The uninfected pools are read here as the healthy donors of the same country. The strongest signals lie near the top of the scale (about 60,000).

The test system of this test is pooled sera of uninfected people, Colombia. Nature of the test: antibody binding signal (normalised fluorescence) (arbitrary fluorescence units); higher = stronger serum antibody binding to peptide. The procedure: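 Microarray of 15-residue peptides over residues 30-55 of Trypanosoma cruzi TSSAII, each with 1 to 10 substitutions at naturally variable positions, probed with one serum pool per country.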
Regarding TEKKPATGGTPSQSG, the antibody binding signal was 239.
As for TISTPPSGKENKAAT, the figure is 738; as for KEKKAAAGGAPSQPG, 83.
As for TEKKAATGETPSQPG, the figure is 652.
As for TDKKAAAGGTPSPPG, the figure is 199.
In turn, TENKAATGGTPSPSG returned an antibody binding signal of 1010.
As for TENKAAAGGTPSPPG, the figure is 385; as for TDKKAAAGGAPSPPG, 136.
As for TPPSGKEKKTAAGET, the figure is 1460.
As to TEKKAAAGGAPSPSG, the antibody binding signal stood at 180.
As for GTDNKTAAGETPSPP, the figure is 165; as for GTEKKTAAGGAPSQP, 283.
As for TPPSGTDKKTATGET, the figure is 370; as for PPSGTENKPATGGAP, 960.
As for SGKEKKPAAGGTPSQ, the figure is 137; as for KKPAAGGTPSQSGAS, 106; as for TSSTPPSGKDNKAAA, 242.
In the case of GTDNKTATGETPSPP, the antibody binding signal was determined as 142.
With EKKPAAGEAPSPSGA, the antibody binding signal came to 86.3.
In the case of STPPSGKDKKTATGE, the antibody binding signal worked out at 178.
For PSGKENKAAAGETPS, the antibody binding signal was 742.
As for SGTDNKPATGGTPSP, the figure is 778; as for GTENKAATGGTPSPS, 479.
For the sequence GKENKTAAGGAPSQS, the antibody binding signal worked out at 129.
Consider SGTEKKTAAGETPSP, for which the antibody binding signal was determined as 616.
As for TDKKAAAGGAPSQSG, the figure is 248.
As for ISTPPSGKDKKAAAG, the figure is 144; as for TSSTPPSGTDKKPAA, 329; as for PPSGTENKTATGGAP, 946.
Sequence PPSGKDKKTATGEAP displayed an antibody binding signal of 275.
As for SSTPPSGKEKKTAAG, the figure is 188; as for GTDKKTATGETPSQP, 105.
As for NKTAAGGTPSPSGAS, the figure is 409; as for TENKAAAGETPSQPG, 244.
The sequence GKDNKPAAGGAPSQP returned an antibody binding signal of 150.
As for STPPSGKENKAAAGE, the figure is 1640; as for SSTPPSGTDKKTATG, 192.
As for TEKKAATGGTPSQSG, the figure is 1650.
As for GTENKPATGGAPSPP, the figure is 273.
KEKKAATGEAPSPPG yielded an antibody binding signal of 182.
